Source: PubChem BioAssay AID1851 (National Center for Advancing Translational Sciences (NCATS), 2009)
Several values for one entry are separate records, joined by “and”; a condition that tells them apart may be missing. Equal values may be shown once. Only a part is listed here, and it is no random draw. Inconclusive results are not listed. Activity calls are given as the source filed them. The call rests on the fitted dose curve; in most records, active means well fitted curve in the direction sought with a large enough effect; inconclusive means small, poorly fitted or top-dose-only effect, or effect the other way; inactive means no such curve, though single readings can be large or run the other way.

target: Cytochrome P450 2C9 (Homo sapiens) (UniProt P11712); assay: Cytochrome panel assay with activity outcomes; conditions: recombinant CYP, pro-luciferin dealkylation, luminescence, p450-cyp2c9; series mostly up to 57.1 µM
UniProt P11712, sequence (P11712 whole entry, looked up): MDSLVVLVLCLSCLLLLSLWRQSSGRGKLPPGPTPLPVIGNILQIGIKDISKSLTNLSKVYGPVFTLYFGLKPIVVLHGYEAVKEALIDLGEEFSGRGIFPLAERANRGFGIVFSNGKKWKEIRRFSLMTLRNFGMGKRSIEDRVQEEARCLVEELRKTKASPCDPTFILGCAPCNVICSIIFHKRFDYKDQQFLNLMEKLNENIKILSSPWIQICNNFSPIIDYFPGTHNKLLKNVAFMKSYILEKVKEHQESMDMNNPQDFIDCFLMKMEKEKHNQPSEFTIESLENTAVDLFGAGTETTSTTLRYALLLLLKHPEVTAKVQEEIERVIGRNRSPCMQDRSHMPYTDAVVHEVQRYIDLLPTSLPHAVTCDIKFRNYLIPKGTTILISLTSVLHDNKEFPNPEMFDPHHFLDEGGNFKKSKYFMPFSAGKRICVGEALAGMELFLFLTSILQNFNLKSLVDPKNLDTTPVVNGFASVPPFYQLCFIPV
Procedure: The P450 gene superfamily is involved in the metabolism and clearance of xenobiotics. This assay used various human CYP P450 isozymes to measure the dealkylation of various pro-luciferin substrates to luciferin. The luciferin is then measured by luminescence after the addition of a luciferase detection reagent. Pro-luciferin substrate concentration in the assay was equal to its KM for its CYP P450 isozyme. Inhibitors and some substrates limit the production of luciferin, and decrease measured luminescence.
NCGC Assay Protocol Summary:
1, Reagent, 2 uL, Isozyme and Pro-Luciferin
2, Library compounds, 23 nl, 40 uM to 0.24 nM dilution series
3, Controls, 23 nl, Isozyme specific inhibitor
4, Reagent, 2 uL, NADPH regeneration solution
5, Incubation time, 60 min, Isozyme specific temperature
6, Reagent, 4ul, Detection reagent
7, Incubation time, 20 min, Isozyme specific temperature
8, Detection, 1 sec, ViewLux luminescent read
The luciferase-based P450-GloTM Screening Systems were obtained from Promega (Madison, WI) for CYP 1A2 (V9770), CYP 2C9 (V9790), CYP2 C19 (V9880), CYP 2D6 (V9890), and CYP 3A4 Luciferin-PPXE (V9910) and were adapted for 1,536-well microplates and an automated protocol. The control compounds furafylline for 1A2 (F124), sulfaphenazole for CYP 2C9 (S0758), ketoconazole for CYP 2C19 (K1003), quinidine for 2D6 (Q3625), and ketoconazole for 3A4 (K1003) were purchased from Sigma Aldrich (St. Louis, MO). Recombinant P450 enzymes were obtained from baculovirus constructs expressed in insect cells (BD/Gentest).
Medium-binding white solid Kalypsys plates used. Mixtures kept on ice. 1A2: 10 nM 1A2, 100 uM Luc-ME, 100 mM KPO4; 2C9: 10 nM 2C9, 100 uM Luc-H, 25 mM KPO4; 2C19: 5 nM 2C19, 10 uM Luc-H EGE, 50 mM KPO4; 2D6: 5 nM 2D6, 30 uM Luc-ME EGE, 100 mM KPO4; 3A4: 10 nM, 25 uM Luc-PPXE. All amounts are reflected in their final concentration, working concentration is 2x.
NADPH regeneration solution: 1.3 mM NADP+, 3.3 mM glucose-6-phosphate, 3.3 mM MgCl2, 0.4 U/mL glucose-6-phosphate dehydrogenase for all isozymes, 200 mM KPO4 for 3A4. Mixture prepared at RT but kept on ice during automated run.
RT incubation in auxilliary plate hotel for 1A2, 2D6, and 3A4; 37C for 2C9 and 2C19.
Keywords: P450, CYP1A2, CYP2C19, CYP2C9, CYP2D6, CYP3A4, Luciferase, MLSMR, MLSCN, NIH Roadmap, qHTS, NCGC

| SMILES | AC50 |
| --- | --- |
| CN1[C@@H]2CC[C@H]1CC(OC(=O)[C@@H](O)c1ccccc1)C2 (some centres undefined) | inactive |
| CN1CCC[C@@H]1CCO[C@](C)(c1ccccc1)c1ccc(Cl)cc1 | inactive |
| Clc1ccc(CS[C@@H](Cn2ccnc2)c2ccc(Cl)cc2Cl)cc1 | active: 20 nM |
| CCN(Cc1ccncc1)C(=O)[C@@H](CO)c1ccccc1 | active: 3.98 µM and active: 794 nM |
